Measured values published in PubChem BioAssay (NCATS).
The inconclusive results got no clear call from the source; some entries with a clear call stand among them for comparison. Activity calls are given as the source filed them. Calls come from the whole dose curve; as a rule, active = well fitted curve in either direction with a large enough effect (not every such curve was filed as active); inconclusive = small, poorly fitted or top-dose-only effect, or another doubt; inactive = flat fitted curve, though single readings scatter.

Assay: NFAT Signaling Pathway (AID 444);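 note: carbachol stimulus at about its EC50 of 1 µM final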
Conditions: Jurkat NFAT-bla M1, carbachol, beta-lactamase ratio, 5 h; at 17.2 µM (top of the series) unless noted
In short: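 Read-out: CCF4 FRET ratio (460 nm/530 nm) after 1 h RT dye loading, used for %activity and AC50 from titration series. Cells: Jurkat NFAT-β-lactamase/M1 line, treated with compound plus 1 uM carbachol for 5 h, 37 °C.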
% is set by controls: 0 for no effect and ±100 for the full control effect.

SMILES	activity change, negative = inhibition
NCC(=O)[C@@H](O)[C@H](O)[C@H](O)CO	inactive: 8.35% [at 7.69 µM]
CCOc1ccc(N=C2C(=O)N(CN3CCOCC3)c3ccccc32)cc1	inactive: 6.57%
CCCOc1ccc(N2C(=O)CC(N(CCC)C(=O)CCC(=O)O)C2=O)cc1 (stereo unspecified)	inactive: 18.7%
CCN1CCN(c2nc3c(C)cccn3c(=O)c2/C=C(\C#N)S(=O)(=O)c2ccc(C)cc2)CC1	inconclusive: -55.6% [inhibitor]
COc1cccc(C2=CC(c3ccccc3)n3nnnc3N2)c1 (stereo unspecified)	inactive: -25.6%
N#Cc1cccc(NC(=O)N2CCCC3(CCN(C(=O)c4cccc(F)c4)CC3)C2)c1	inconclusive: -56.1% [inhibitor] [at 7.69 µM]
CC1(C)Cc2c(sc3nc(SCC#N)n(C4CCCCC4)c(=O)c23)CO1	inconclusive: -34.9% [inhibitor]
CCCc1cc(C(=O)Cc2ccc(F)cc2)c(O)cc1O	inconclusive: -93.9% [inhibitor]
O=C(O)c1c[nH]c2ccc(S(=O)(=O)N3CCOCC3)cc12	inactive: -7.03%
O=C(c1csnn1)N1CCC[C@@]2(CCN(c3ccccc3)C2)C1	inactive: -8.4% [at 7.69 µM]
COc1ccc(Cn2c(=O)c3c(nc(NCCO)n3C)n(C)c2=O)cc1	inconclusive: -52.3% [inhibitor]
CCCCn1c(O)c(C=NCCCN(C)C)c(=O)[nH]c1=O	inconclusive: 11.2% [inhibitor]
O=c1c(F)cn(C2CCCO2)c(=O)n1Cc1ccccc1Cl (stereo unspecified)	inactive: -19.1%
CCOC(=O)/C(C#N)=C1\Nc2ccccc2N=C1N(CC(C)C)CC(C)C	inconclusive: -72.6% [inhibitor]
N/N=C1/CC(=O)NC(=O)N1	inconclusive: -33.6% [inhibitor] [at 7.69 µM]
NCCn1c(=O)c(CCc2ccccc2)nc2cncnc21	inactive: -4.68% [at 7.69 µM]
Cn1c(=O)[nH]c(=O)c2c1nc(Br)n2CCSc1ncccn1	inactive: -10.8%
COC(=O)c1ccc(CSc2ncnc3c2sc2nc(N4CCOCC4)c4c(c23)CCCC4)o1	inconclusive: -35.6% [inhibitor]

SMILES	activity change, negative = inhibition
N#Cc1nc(COc2ccc(Br)cc2)oc1NCCN1CCOCC1	inactive: 10.5%
CCOc1ccc2c(c1)n([O-])c1c([n+]2=O)CCCC1	inactive: -13%
O=C(Nc1cccc(F)c1)N1CCC2(CCNCC2)CC1	inactive: -3.25% [at 7.69 µM]
CCOC(=O)CSc1nnc2n(C3CCCCC3)c(=O)c3c4c(sc3n12)CCCC4	inconclusive: -54% [inhibitor]
Brc1ccc(-c2cnnc(N3CCCC3)n2)cc1	inactive: 0.485%
Cc1ccc(S(=O)(=O)N2CCC(N3CCCCCC3)CC2)cc1	inconclusive: -77.2% [inhibitor]
COc1ccccc1N1CCN(CCCCOc2ccc(F)cc2)CC1	inconclusive: -33% [inhibitor]
O=C(Nc1ccc2c(c1)OCO2)c1cc2n(n1)C(C(F)(F)F)CC(c1ccccc1)N2 (stereo unspecified)	inactive: 6.64%
C(=N\n1cnnc1)/c1ccccn1	inconclusive: 87.8% [activator]
O=C(c1ccco1)N1CCC[C@@]2(CCN(C(c3ccccc3)c3ccccc3)C2)C1	inconclusive: -65.3% [inhibitor] [at 7.69 µM]
c1ccc([P+](CC[P+](c2ccccc2)(c2ccccc2)c2ccccc2)(c2ccccc2)c2ccccc2)cc1	inconclusive: -49.6% [inhibitor] [at 7.69 µM]
O=C1c2ccccc2C(=O)N1c1ccc(Cc2ccc(N3C(=O)c4ccccc4C3=O)cc2)cc1	inactive: 8.54% [at 7.69 µM]
CCCc1nc(N2CCOCC2)c(C#N)c2c1CCCC2	inconclusive: -38% [inhibitor]
CCOC(=O)NC(Nc1sc2c(c1C(N)=O)CCCC2)(C(=O)OCC)C(F)(F)F (stereo unspecified)	inactive: -0.536%
CCC(CC)n1[nH]c(=O)cc1N	inactive: 14.2%
Cc1cc(=Nc2ccc3c(c2)c(N)cc(C)[n+]3C)nc(N)n1C	inconclusive: -50% [inhibitor] [at 7.69 µM]
Cc1cc2c(c(=O)n1Cc1ccccn1)C(c1ccc3c(c1)OCO3)C(C#N)=C(N)O2 (stereo unspecified)	inconclusive: -42.9% [inhibitor]
CCCCCCn1c(SCCN2CCOCC2)nc2c1c(=O)[nH]c(=O)n2C	inconclusive: 11% [activator]
